This note sets out measurements from PubChem BioAssay AID463173 (ICCB-Longwood Screening Facility, Harvard Medical School, 2010).

The campaign covered roughly 52,000 compounds. About 1,700 (3.3%) were called active. No stated cut-off is given here; in the data, active means survival mostly below about 52% (no sharp cut-off); inactive means mostly above about 56%. The list shows a part of the results.

In the test the test system is Wild type. Kind of test: growth inhibition of S. aureus wild type versus tarO mutant, primary screen, teichoic acid synthesis inhibitors, RN4220, OD600 (AID 463173). Particulars: S. aureus RN4220 wild type/DeltatarO growth, OD600, 18 h, active compounds read low, screened at 18.75 µg/mL (by protocol).
For the compound `CC(C)c1ccc(-c2nnc3n(CCc4ccccc4)c(=O)c4ccccc4n23)cc1`, the survival is inactive: 47%.

As to `CC(C)N1C(=O)CSC1c1ccccc1` (centres undefined), the survival was inactive: 107%.

Regarding `Cc1cccc(NCc2nc3ccccc3n2CCOc2ccccc2C)c1`, the survival was active: -18%.

As for `COc1cc(C(=O)n2nc(-c3ccco3)nc2NCc2ccc(Cl)cc2)cc(OC)c1OC`, the survival was inactive: 86%.

With `COc1ccc(NC(=O)c2c(C)oc3ccc(O)c(CN4CCCC4)c23)cc1Cl`, the survival was inactive: 86%.

As to `Cc1nc2cccnc2n1CCNC(=O)Nc1cccc2ccccc12`, the survival was inactive: 109%.

For the compound `COc1ccc(C(=O)NCC(c2ccc(N(C)C)cc2)N2CCCC2)c(OC)c1` (centres undefined), the survival was inactive: 75%.

`Cc1cccc(-c2nc(CSc3nncn4c3cc3oc(C)cc34)c(C)o2)c1`: the survival was inactive: 90%.

Regarding `CCSc1ncc(Cl)c(C(=O)Nc2c(C(=O)Nc3cccc(C)c3)oc3ccccc23)n1`, the survival is inactive: 113%.

Regarding `CC(C)(C)OC(=O)N1CCC(n2nccc2N)CC1`, the survival was inactive: 104%.

Consider `Cc1ccc2nc(-c3ccc(Cl)cc3)cc(C(=O)OCC(=O)c3ccccc3)c2c1`, for which the survival was inactive: 73%.

As to `COc1ccccc1OCC(=O)Nc1nc2c(s1)CC(C)CC2` (centres undefined), the survival was inactive: 80%.

As for `CCC(C(=O)NC1CCCCC1)n1c(SCc2ccc(F)cc2)nc2ccncc21` (centres undefined), the survival is inactive: 69%.

For `COc1ccc(NC(=O)c2sc3nc4c(cc3c2N)CN(Cc2ccccc2)CC4)cc1`, the survival is inactive: 91%.

`CCc1ccc(C2Sc3ccccc3NC3=C2C(=O)c2ccccc23)cc1` (centres undefined): the survival is inactive: 122%.

`COc1ccc(C(=O)NCCc2sc(-c3ccc(F)cc3)nc2C)cc1OC`: the survival was inactive: 66%.

Consider `CC1CCC(NC(=O)C2(C)Cc3ccccc3C(=O)N2Cc2ccc(F)cc2)CC1` (centres undefined), for which the survival was inactive: 83%.

Turning to `CCC(Cn1nnc2ccccc2c1=O)NC(=O)Nc1ccc(C)cc1C` (centres undefined), the survival is inactive: 90%.

Take `CCOc1ccccc1C(=O)NCc1ccc2c(c1)CCN2C(C)=O`: the survival was inactive: 91%.

On to `Cc1ccc(C2c3[nH]c4ccccc4c3CCN2C(=O)Nc2ccc(C)c(C)c2)cc1` (centres undefined), for which the survival is inactive: 83%.

In the case of `O=C(NCCc1ccc(Cl)cc1)c1ccc(CSCc2ccccc2Cl)o1`, the survival is inactive: 70%.

Take `CC(=O)c1cccc(NC(=O)c2nc(-c3ccc(C)cc3)n3c2CCCCC3)c1`: the survival was inactive: 72%.

Regarding `Cc1cccc(NC(=O)C2CCCN(S(=O)(=O)c3cccc4nonc34)C2)c1` (centres undefined), the survival is inactive: 92%.

For `CCOC(=O)C(C)Sc1nnc2ccc3ccccc3n12` (centres undefined), the survival is inactive: 79%.

For the compound `Cc1ccc(NC(=O)C(=O)NCc2ccc(Cl)cc2)cc1`, the survival is inactive: 105%.

Turning to `O=C(OCCN1CCCCC1)c1cc2ccccc2o1`, the survival is inactive: 110%.

`Cc1ccc(S(=O)(=O)Nc2cccc(-c3ccc(N4CCCCC4)nn3)c2)s1`: the survival is inactive: 64%.

`CCn1c(SCC#N)nnc1-c1cccc(C)c1`: the survival was inactive: 102%.

`COc1ccc(C2(CNC(=O)C(=O)Nc3cccc(C(F)(F)F)c3)CCCC2)cc1OC`: the survival was inactive: 117%.

Take `CCN(CC)c1ccc(C=C2C(=O)c3ccccc3C2=O)c(O)c1`: the survival was inactive: 107%.

Consider `COc1cc(OC)c(NC(=O)CCn2cnc3onc(-c4ccc(F)cc4)c3c2=O)cc1Cl`, for which the survival is inactive: 64%.

On to `Cc1oc(-c2cccc(Cl)c2)nc1CN1CCC(C(=O)NCCCN2CCN(c3cccc(Cl)c3)CC2)CC1`, for which the survival is inactive: 80%.

With `Nc1cc(=O)nc(SCC(=O)Nc2ccc(F)cc2)n1-c1ccc(Cl)cc1`, the survival was inactive: 72%.

Regarding `CCOc1ccc(NC(=O)N(Cc2c[nH]c3ccccc23)C2CCCCC2)cc1`, the survival is inactive: 79%.

On to `Cc1ccc(CNCc2c(C(=O)O)n(Cc3ccccc3C)c3cc(C)ccc23)cc1`, for which the survival is inactive: 63%.

For the compound `Nc1ncnc2nc(SCC(=O)O)[nH]c12`, the survival is inactive: 104%.

Take `CCCCNC(=O)c1[nH]c2ccccc2c1Sc1ccc(C)cc1`: the survival is inactive: 83%.

As to `O=C(Cn1c(=O)sc2ccccc21)Nc1cccc(Cl)c1`, the survival is inactive: 102%.

For `CC1(C)CC2CC(C)(CN2C(=O)c2cc(-c3ccccc3)on2)C1` (centres undefined), the survival was inactive: 97%.

On to `Cn1cc(S(=O)(=O)N2CCCCC2)cc1C(=O)N1CCN(c2ccc(F)cc2)CC1`, for which the survival was inactive: 65%.

`Cc1cc(=O)n(CC(=O)NCCC(C)C)c2c1c(C)nn2C`: the survival was inactive: 71%.

As for `Cc1ccc2c(c1)c(=O)c(C(=O)c1ccncc1)cn2CC(=O)Nc1c(C)cccc1C`, the survival is inactive: 72%.

`Cc1cc2c(=O)c(C(=O)c3ccncc3)cn(CC(=O)Nc3cccc(C)c3C)c2cc1C`: the survival is inactive: 78%.

With `CC(NC(=O)CN(C)S(=O)(=O)c1ccc2c(c1)c(=O)n(C)c(=O)n2C)c1ccccc1` (centres undefined), the survival is inactive: 77%.

For `Cc1oc(-c2ccc(C(=O)NCc3ccc(N(C)C)cc3)cc2)nc1COc1ccccc1`, the survival was inactive: 55%.

As for `Cc1ccc(C)c(S(=O)(=O)c2cnc(SCC(=O)Nc3ccc(F)cc3F)[nH]c2=O)c1`, the survival was inactive: 70%.

On to `CCc1ccc(NC(=O)CSc2nccn2C2CCCC2)cc1`, for which the survival is inactive: 84%.

Consider `COc1ccc(CCNC(=O)Cn2nc(C)n3c(cc4occc43)c2=O)cc1OC`, for which the survival was inactive: 86%.

As to `CCOC(=O)c1c(S(=O)(=O)N2CCCC(C(=O)N3CCN(c4ccc(F)cc4)CC3)C2)c(C)n(C)c1C` (centres undefined), the survival is inactive: 81%.

`COc1ccc(CCNC(=O)Cn2ncc3c(C)n(Cc4ccccc4F)c(C)c3c2=O)cc1OC`: the survival is inactive: 94%.

`CCN(CC)CCNC(=O)C1CCCN(c2ncnc3onc(C)c23)C1` (centres undefined): the survival is inactive: 77%.

Regarding `Cc1c(C(N)=O)nnn1-c1ccc(Br)cc1`, the survival is inactive: 102%.

In the case of `Cc1ccc(C)c(-c2csc(-c3c(N)c(C(=O)c4ccc5c(c4)OCO5)n4ccccc34)n2)c1`, the survival is inactive: 112%.

On to `COc1ccc(NC(c2ccc(F)cc2)c2nnc(-c3ccccc3Cl)o2)cc1Cl` (centres undefined), for which the survival is inactive: 88%.

As to `Cc1cccc(NC(=O)Cn2c(=O)oc3cc(S(=O)(=O)NCc4ccccc4)ccc32)c1`, the survival is inactive: 92%.

Regarding `Cc1ccc2nc(N(Cc3cccnc3)C(=O)C3CCCCC3)sc2c1`, the survival was inactive: 68%.

`COc1ccc(Br)cc1C1CC(=O)Nc2c1c(C)nn2-c1nc(C)cc(C)n1` (centres undefined): the survival is inactive: 90%.

Take `CCn1cc(C(=O)OCC(=O)Nc2cc(Cl)ccc2OC)c(=O)c2ccc(C)nc21`: the survival is inactive: 69%.

Consider `COc1cc(CNCc2c(C(=O)O)c(C)n(Cc3cccc(Cl)c3)c2C)cc(OC)c1OC`, for which the survival was inactive: 83%.
